# In PubChem BioAssay AID540317 (National Center for Advancing Translational Sciences (NCATS), 2011):
# Hit rate of the full screen: of about 390,000 compounds, about 2,200 (0.56%) were called active. The inconclusive results got no clear call from the source; some entries with a clear call stand among them for comparison. Calls come from the whole dose curve; as a rule, active = well fitted inhibition curve with a large enough effect; inconclusive = small, poorly fitted or top-dose-only effect; inactive = no such curve, though single readings can be large or run the other way. Where the call is inconclusive, the potency comes from a doubtful curve fit.
# Biological target: Chromobox protein homolog 1 (Homo sapiens) (UniProt P83916)
# Experiment: HTS for Inhibitors of HP1-beta Chromodomain Interactions with Methylated Histone Tails; note: nearly all actives have a fitted effect of over 70% in size
# Details: AlphaScreen HP1-beta / biotin-H3K9me3 peptide binding; series mostly up to 114 µM
# How it was run: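 AlphaScreen: HP1-beta (50 nM) preformed 30 min with biotin-H3(1-18)K9me3 peptide (50 nM) in PBS pH 7.4, 0.01% Tween-20. Compound added for 30 min at RT, then streptavidin donor/nickel chelate acceptor beads (10 ug/mL) for 30 min.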
# Potency is the fitted concentration of half-maximal effect; tags give direction and shape of the fitted curve.
# Sequence of UniProt P83916 (P83916 whole entry, looked up): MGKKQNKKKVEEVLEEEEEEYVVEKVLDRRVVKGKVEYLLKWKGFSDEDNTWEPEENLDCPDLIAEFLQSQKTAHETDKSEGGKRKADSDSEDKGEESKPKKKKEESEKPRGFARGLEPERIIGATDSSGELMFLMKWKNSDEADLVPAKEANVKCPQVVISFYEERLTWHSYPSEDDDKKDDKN
row,Compound,Potency
1,COc1ccc(C2C=C(C34CC5CC(CC(C5)C3)C4)NC(=S)N2)cc1OC (stereo not given),"inconclusive: 39.8 µM [inhibitor, partial curve]"
2,COc1ccc(CNc2ncc(-c3ccccc3)n2C)c(OC)c1OC,"inconclusive: 25.1 µM [inhibitor, full curve]"
3,CC(NCc1ccco1)C(=O)N1CCc2ccccc2C1 (stereo not given),"inconclusive: 79.4 µM [inhibitor, partial curve]"
4,Cc1ccc(NC(=O)CC2Nc3cccc4cccc(c34)NC2=O)cc1 (stereo not given),inactive
5,CC(C)Cn1c(-c2csc(C(C)C)c2)n[nH]c1=S,inactive
6,C=CCNC(=O)C1CC(=O)N(c2ccc(OCC(=O)Nc3ccc(C)cc3)cc2)C1 (stereo not given),inactive
7,Cc1ccc(Nc2nc(N)c([N+](=O)[O-])c(N3CCC(C)CC3)n2)cc1C,"inconclusive: 56.2 µM [inhibitor, single point]"
8,O=c1[nH]c(N/N=C/c2ccc(O)cc2)nc2ccccc12,inactive
9,COc1ccc(Br)cc1C1CC(=O)N2CN(C)CSC2=C1C#N (stereo not given),"inconclusive: 35.5 µM [inhibitor, full curve]"
10,CCN(CC)c1ccc(NC(=O)c2cncc(Br)c2)cc1,"inconclusive: 44.7 µM [inhibitor, partial curve]"
11,O=C1c2cccc3cc([N+](=O)[O-])cc(c23)C(=O)N1CC1CCCO1 (stereo not given),"inconclusive: 70.8 µM [inhibitor, partial curve]"
12,COC(=O)c1ccc(/C=C/c2c(-c3ccsc3)sc3ccccc23)cc1,inactive
13,COc1cc(CN2CCC(C(=O)N3CCCC(C)C3)CC2)cc(OC)c1O (stereo not given),"inconclusive: 89.1 µM [inhibitor, single point]"
14,COc1ccc(C(C[N+](=O)[O-])c2c(C)[nH]n(-c3ccccc3)c2=O)cc1 (stereo not given),"inconclusive: 79.4 µM [inhibitor, single point]"
15,CCOc1ccc(C(=O)NCC(=O)OCC(=O)c2ccc3c(c2)-c2ccccc2C3)cc1,inactive
16,CC(=O)c1cccc(Nc2nc(-c3sc(N)nc3C)cs2)c1,"inconclusive: 25.1 µM [inhibitor, partial curve]"
17,O=C1N/C(=N/c2ccccn2)SC1Cc1ccccc1 (stereo not given),inactive
18,COCCCNC(=O)/C(C#N)=C/c1c(N2CCN(c3ccc(OC)cc3)CC2)nc2c(C)cccn2c1=O,"inconclusive: 39.8 µM [inhibitor, partial curve]"
19,Nc1[nH]n(-c2ccccc2)c(=O)c1N=Nc1ccc2ncsc2c1,inactive
20,COc1ccc(Nc2c([N+](=O)[O-])ccc3c2=NC2(CCCCC2)N=3)cc1,active: 8.91 µM
21,COc1ccccc1N(C(=O)c1ccncc1)c1nc(-c2ccc([N+](=O)[O-])cc2)cs1,"inconclusive: 15.8 µM [inhibitor, full curve]"
22,O=C(CN1CCCCCCC1)N/N=C/c1ccc(F)cc1F,"inconclusive: 56.2 µM [inhibitor, partial curve, poor fit]"
23,O=[N+]([O-])c1ccc(-c2cnc(SC(c3ccccc3)c3ccccc3)[nH]2)cc1,"inconclusive: 28.2 µM [inhibitor, partial curve]"

row,Compound,Potency
1,CCOCC(=O)Nc1nnc(COc2ccc(Cl)cc2)s1,"inconclusive: 14.1 µM [inhibitor, full curve]"
2,COc1cccc(/C(C#N)=C/c2c(-c3ccc(Cl)cc3)nc3c(C)cccn23)c1,"inconclusive: 14.1 µM [inhibitor, partial curve, poor fit]"
3,COc1ccc(Cl)cc1NC(=S)N(CCCN1CCOCC1)Cc1cn(C)c2ccccc12,"inconclusive: 20 µM [inhibitor, full curve]"
4,O=C(O)c1cccc(Cn2c(Cl)c(/C=N/NC(=O)c3ccccc3Cl)sc2=O)c1,inactive
5,CCCNC(=O)CN1C(=O)c2cccnc2Sc2ccccc21,"inconclusive: 89.1 µM [inhibitor, single point]"
6,Cn1cccc1-c1cc(C(=O)N/N=C/c2cccc(O)c2)[nH]n1,"inconclusive: 50.1 µM [inhibitor, partial curve, poor fit]"
7,CCN1CCN(c2nnc(-c3ccccc3)c3ccccc23)CC1,inactive
8,CSc1ccc(S(=O)(=O)N2CCN(Cc3ccc4c(c3)OCO4)CC2)cc1,inactive
9,C/C=C\C=C/C(=O)Nc1cccc(C2=NOC3(C2)C[C@@H](C(N)=O)N(C(=O)/C=C/CC)C3)c1 (stereo not given in full),"inconclusive: 39.8 µM [inhibitor, partial curve]"
10,Cc1ccc(Nc2c([N+](=O)[O-])c(=O)oc3ccccc23)cc1C,"inconclusive: 56.2 µM [inhibitor, partial curve, poor fit]"
11,O=C(COC(=O)/C=C/c1ccco1)Nc1ncc(C(F)(F)F)cc1Cl,active: 50.1 µM
12,O=C(CC1NCCNC1=O)Nc1cccc(F)c1 (stereo not given),inactive
13,CC(C)(C)C1=CC(=O)C(=O)C(C(C)(C)C)=C1,"inconclusive: 20 µM [inhibitor, full curve, poor fit]"
14,Cc1c(C2N3CC4(C)CN2CC(C)(C3)C4=O)c2ccccc2n1C (stereo not given),"inconclusive: 17.8 µM [inhibitor, partial curve, poor fit]"
15,CCc1ccc(CN2CCc3nc(Nc4ccc5c(c4)OCCO5)ncc3C2)cc1,"inconclusive: 35.5 µM [inhibitor, partial curve]"
16,O=C(CN1CCCCC1)N1CCCc2ccccc21,"inconclusive: 56.2 µM [inhibitor, single point]"
17,CC1=C(C)/C(=N\OS(=O)(=O)c2ccc(C)cc2)C=CC1=O,"inconclusive: 35.5 µM [inhibitor, full curve, poor fit]"
18,CCOC(=O)c1sc(N)c(C(=O)Nc2ccccc2OC)c1C,active: 5.62 µM
19,Cc1cc(NC(=O)C2CCCN(S(=O)(=O)c3cccc4nonc34)C2)ccc1Br (stereo not given),inactive
20,Cc1noc(NS(=O)(=O)c2ccc(NC(=O)CC(C)C)cc2)c1C,inactive
21,O=c1[nH]c(S)c(/C=C2\C=Nc3ccccc32)s1,"inconclusive: 11.2 µM [inhibitor, full curve, poor fit]"
22,Cc1cc(-c2n[nH]c(=S)n2/N=C/c2ccccc2[N+](=O)[O-])n[nH]1,"inconclusive: 35.5 µM [inhibitor, single point]"
